Source: patent publication US11390580B2, “Anti-fungals targeting the synthesis of fungal shingolipids” (THE RESEARCH FOUNDATION FOR THE STATE UNIVERSITY OF NEW YORK, priority 2014, dated 2022)

What was measured:
J774.16 cells = assay: In vitro toxicity, MTT assay; settings: for toxicity: J774; for toxicity when combined with dexamethasone: J774, 24 hr
[1] = test system: mammalian GlcCer in bone marrow derived macrophages; settings: treated for three days

Structure (SMILES)	EC50/MIC80 selectivity index (J774.16 cells)	toxicity (J774.16 cells)	toxicity when combined with dexamethasone (J774.16 cells)	GlcCer level [1]
Cc1ccccc1C(=O)NN=Cc1ccc(O)c(Br)c1 [BHBM, N′-(3-bromo-4-hydroxybenzylidene)-2-methylbenzohydrazide]	50	no or a slight toxicity	enhanced	did not significantly affect GlcCer level
O=C(NN=Cc1ccc(O)c(Br)c1)c1cccc(Br)c1 [Compound 1, 3-bromo-N′-(3-bromo-4-hydroxybenzylidene) benzohydrazide]	> 100	no or a slight toxicity	increased toxicity	
